# In all, about 410,000 compounds went through this assay and about 1,200 (0.29%) were called active. Inconclusive means that the source gave no clear call. Such entries were picked first, then a sample of the others. The call rests on the fitted dose curve; in most records, active means well fitted activation curve with a large enough effect; inconclusive means small, poorly fitted or top-dose-only effect; inactive means flat fitted curve, though single readings scatter. Potencies of inconclusive entries are doubtful fits and often do not repeat.
# Test: qHTS of Nrf2 Activators; further: nearly all actives have a fitted effect of over 65% in size; on activation: % of control where 0% means no effect
# Settings: AREc32 ARE-luciferase reporter (MCF7-derived line), luminescence, 24 h; activation: at 46.1 µM (top of the series)
# Procedure, shortened: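 ARE-driven firefly luciferase activity in AREc32 cells measured after a 24 hr compound exposure at 37 deg C, using Steady-Glo reagent and a 30 min room-temperature hold.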
# Potency means the concentration at half of the fitted maximal effect; tags describe the fitted curve by direction and shape.
SMILES,activation,Potency
Cc1ccc(-c2cc(C(=O)Oc3ccccc3)c3cc(C)ccc3n2)cc1,inactive: -0.017%,–
CC(C)c1cccc(C(C)C)c1NC(=O)CCl,–,"inconclusive: 17.8 µM [activator, single point]"
Cc1ccc(-n2nc(C)c(NC(=O)CCl)c2C)cc1C,–,"inconclusive: 17.8 µM [activator, partial curve, poor fit]"
COc1ccc2sc(NCc3ccccc3)nc2c1,inactive: 5.58%,–
CN1CCN(C(=O)c2ccc(-c3ccc(F)c(F)c3)c3ccoc23)CC1,inactive: 0.07%,–
O=C(COC(=O)c1cc[n+]([O-])cc1)Nc1ccc(Cl)cc1Cl,inactive: 2.37%,–
COC(=O)c1ccc2nc(-c3cccc(Br)c3)c(CC3CCCCC3)n2c1,–,active: 8.91 µM
CCc1ccccc1NC(=O)c1cc(-c2ccco2)on1,–,"inconclusive: 17.8 µM [activator, partial curve, poor fit]"
Cn1c(=O)c2nc(NCc3ccccc3)sc2n(C)c1=O,–,active: 2.51 µM
O=C(Nc1cccc(Cl)c1N1CCOCC1)c1ccc([N+](=O)[O-])o1,–,"inconclusive: 4.47 µM [activator, single point]"
CN1C(=O)/C(=C\C(=O)c2cccs2)c2ccccc21,–,"inconclusive: 20 µM [activator, single point]"
CC(=O)/C=C/n1c(=S)oc2ccccc21,–,"inconclusive: 5.01 µM [activator, single point]"
CCOC(=O)c1c(CSC(=N)N)n(C)c2cc(Br)c(OC(C)=O)cc12,–,"inconclusive: 22.4 µM [activator, partial curve, poor fit]"
O=C(CCS(=O)(=O)c1ccc(F)cc1)Nc1nnc(-c2ccco2)o1,–,"inconclusive: 20 µM [activator, single point]"
O=Cc1ccc(Sc2nnc(-c3ccccc3)o2)c([N+](=O)[O-])c1,–,"inconclusive: 31.6 µM [activator, single point]"
COc1cccc2cc(C(=O)OCC(=O)NC3CCCC(C)C3C)c(=O)oc12 (stereo unspecified),–,"inconclusive: 20 µM [activator, single point]"
CC(/C=C1\SC(=S)N(NC(=O)c2cccc(O)c2)C1=O)=C\c1ccccc1,–,"inconclusive: 22.4 µM [activator, partial curve, poor fit]"
CCOC(=O)Nc1cccc(OCC(=O)Nc2ccc(OC)cc2OC)c1,inactive: 1.53%,–
Cc1ccc(C)c(NC(=S)NNC(=O)c2ccco2)c1,–,"inconclusive: 20 µM [activator, single point]"
COC(=O)/C(C#N)=C/c1c(Oc2cccc(C)c2C)nc2ccccn2c1=O,inactive: -0.262%,–
CC(/C=N/NC(=O)c1cccnc1)=C\c1ccccc1,inactive: 2.82%,–
Cc1ccc(C(=O)Nc2nnc(S(=O)(=O)N3c4ccccc4CC3C)s2)cc1 (stereo unspecified),inactive: -0.153%,–
O=C(NCc1ccccc1)c1ccc(CSc2nc3cccnc3n2Cc2cccc(F)c2)cc1,inactive: 3.64%,–
Cc1ccc(C(=O)c2cnc3cc4c(cc3c2S(=O)(=O)c2ccccc2)OCCO4)cc1,–,active: 12.6 µM

SMILES,activation,Potency
COC(=O)c1ccc(COc2ccc(C)cc2[N+](=O)[O-])o1,inactive: 0.501%,–
COc1cc(-c2nc3ccc(N4CCN(C)CC4)cc3[nH]2)cc(OC)c1OC,–,"inconclusive: 15.8 µM [activator, single point]"
Nc1ncnc(Oc2ccccc2F)c1[N+](=O)[O-],–,"inconclusive: 28.2 µM [activator, partial curve, poor fit]"
C/C(=N/OCC(=O)Nc1ccccc1)c1cccs1,inactive: 3.38%,–
O=C1/C(=C/c2ccco2)Oc2c1ccc(O)c2CN1CCCCC1,–,"inconclusive: 31.6 µM [activator, partial curve, poor fit]"
O=[N+]([O-])c1ccc(/C=C/c2ccc3cccc(O)c3n2)cc1,–,"inconclusive: 3.55 µM [activator, full curve, poor fit]"
Cc1nn(C)c(Oc2ccccc2)c1CCNC(=O)CCl,–,"inconclusive: 25.1 µM [activator, single point]"
CC(C)N=c1scc(-c2cccs2)n1/N=C/c1ccc(O)c(O)c1O,–,"inconclusive: 31.6 µM [activator, single point]"
CCCC(=O)OC/C(O)=C(\C#N)c1nc2ccccc2[nH]1,–,"inconclusive: 31.6 µM [activator, single point]"
CC(=O)C1=CCC(c2ccccc2Cl)N(S(=O)(=O)c2ccc(C)cc2)C1 (stereo unspecified),–,"inconclusive: 15.8 µM [activator, single point]"
Cc1ccccc1NC(=O)/C=C/c1ccc([N+](=O)[O-])s1,–,"inconclusive: 0.562 µM [activator, partial curve, poor fit]"
CC(=O)N1c2ccc(S(=O)(=O)NCCC(=O)Nc3ccc(OC(F)(F)F)cc3)cc2CC1C (stereo unspecified),inactive: 2.28%,–
CC(=O)N1CCN(C(=O)CCc2nc3ccccc3c(=O)[nH]2)CC1,inactive: 0.0936%,–
COCC(=O)N(C)C[C@@H]1Oc2cc(-c3ccc(F)cc3)ccc2S(=O)(=O)N([C@H](C)CO)C[C@H]1C,inactive: -0.254%,–
CCOC(=O)c1c(Nc2ccc(C)c(C)c2)nnc(-c2ccccc2)c1-c1ccccc1,inactive: 1.05%,–
CSc1nnc(C)c(=O)n1COC(=O)/C=C/c1ccccc1,–,"inconclusive: 22.4 µM [activator, single point]"
COC(=O)c1sc(NC(=S)NC(=O)c2cccc(Br)c2)nc1C,–,active: 15.8 µM
COc1cc(OC)cc(C(=O)N[C@H](C(=O)Nc2nc(-c3ccc(OC)c(OC)c3)cs2)C(C)C)c1,inactive: 4.04%,–
COc1ccc(C(=O)Nc2ccc(O)c3ccccc23)cc1OC,–,"inconclusive: 12.6 µM [activator, partial curve, poor fit]"
O=C(COC(=O)/C=C/c1ccco1)Nc1cccc([N+](=O)[O-])c1,–,"inconclusive: 11.2 µM [activator, partial curve, poor fit]"
O=C(NCc1ccco1)c1sc2cc(F)ccc2c1Cl,–,"inconclusive: 22.4 µM [activator, single point]"
Cc1nc(CCNC(=O)C2CCC(=O)N(Cc3cccc(F)c3)C2)sc1C (stereo unspecified),inactive: -1.28%,–
N#C/C(=C\c1ccc(Cl)cc1)c1nc2ccccc2o1,–,"inconclusive: 11.2 µM [activator, partial curve, poor fit]"
Cc1cccc(NC(=O)Nc2cccs2)c1C,–,"inconclusive: 15.8 µM [activator, single point]"

SMILES,activation,Potency
O=C(Cn1c(=O)sc2ccccc21)NCc1ccccn1,inactive: 0.457%,–
CCn1nc(C)c2c(-c3ccccc3)cc(=O)n(C(C)C(=O)Nc3ccc(OC)c(OC)c3)c21 (stereo unspecified),inactive: -0.788%,–
O=C1C(Cl)=C(N2CCC(C(=O)O)CC2)C(=O)c2ccccc21,–,"inconclusive: 15.8 µM [activator, partial curve, poor fit]"
CCN(CC)S(=O)(=O)c1ccc(-c2nnc3sc4cccc(C)c4n23)cc1,–,"inconclusive: 15.8 µM [activator, single point]"
Cc1ccc(CNC(=O)c2cn(C3CCCCC3)c(=O)c3c2c2ccccc2n3C)o1,–,"inconclusive: 22.4 µM [activator, single point]"
CC(C)(C)NC(=O)C(c1ccncc1)N(Cc1ccc(F)cc1)C(=O)c1ccc(-c2ccccc2)[nH]1 (stereo unspecified),–,"inconclusive: 31.6 µM [activator, single point]"
CCc1ccc(S(=O)(=O)c2nnn3c2nc(Nc2ccc(F)cc2)c2cc(Cl)ccc23)cc1,inactive: 0.03%,–
N#C/C(=C\C=C\c1ccccc1)C(=O)NCc1cccnc1,–,"inconclusive: 2.24 µM [activator, full curve, poor fit]"
Cc1ccc(OCCOc2cccc3ccc(C)nc23)c([N+](=O)[O-])c1,–,"inconclusive: 8.91 µM [activator, partial curve, poor fit]"
O=C1NC2c3c(I)sc(I)c3C(=O)C2O1 (stereo unspecified),–,active: 11.2 µM
COC(C[C@@H]1O[C@H]1C(=O)[C@@H](C)OCc1ccccc1)OC,–,"inconclusive: 17.8 µM [activator, single point]"
COc1ccc(/C(N)=N/OC(=O)c2cccs2)cc1OC,–,"inconclusive: 22.4 µM [activator, single point]"
CCOc1ccc(CCNC(=O)c2ccc(-n3c(C)cc4c3CCC(C)C4)cc2)cc1OCC (stereo unspecified),–,"inconclusive: 17.8 µM [activator, single point]"
CCN(CC)c1sc(S(=O)(=O)c2ccccc2)nc1S(=O)(=O)c1ccc(C)cc1,–,"inconclusive: 2.51 µM [activator, full curve, poor fit]"
CCN(CCCNC(=O)c1cc2c(Cl)nc3ccccc3c2s1)Cc1ccccc1,inactive: 10.7%,–
CC1CCN(c2nc(-c3ccco3)c3c(c2C#N)CC(C)(C)OC3)CC1,–,"inconclusive: 35.5 µM [activator, single point]"
CC1C/C(=C/c2cccn2C)C(=O)/C(=C/c2cccn2C)C1 (stereo unspecified),–,"inconclusive: 11.2 µM [activator, partial curve]"
CCOC(=O)Cc1csc(NC(=O)NC2(C(F)(F)F)Oc3cc(Cl)c(Cl)cc3O2)n1,inactive: 6.88%,–
Cc1ccccc1N=C(NOCc1ccccc1)c1nonc1N,inactive: -0.072%,–
COC(=O)c1ccc2nc(-c3ccco3)c(Cc3ccccc3)n2c1,–,"inconclusive: 3.55 µM [activator, full curve]"
Cc1ccc(S(=O)(=O)CCC(=O)Nc2nnc(-c3ccco3)o2)cc1,–,"inconclusive: 22.4 µM [activator, single point]"
Cc1ccc(C)c(C(C)NC(=O)C2CCCC2)c1 (stereo unspecified),inactive: -0.889%,–
O=C(c1cc(-c2cccs2)on1)N1CCCc2ccccc21,–,"inconclusive: 11.2 µM [activator, partial curve, poor fit]"
